From publication PMC3792071
Read-outs that look alike come from different tables or passages of the source. These are yes or no findings as the source states them, for the method shown. For some of these results: In cells and extracts the contact can be indirect. Some binding calls cover weakened binding; strength is not graded here.

By UniProt entry, the sequences of proteins in these tests, tags left out. Where a name states a change or a piece, a line headed by the entry shows the natural chain unless it says otherwise. Chains listed by the source or under a name are the forms on record and can include a tag or linker. Residues count along the entry.
UniProt P36873: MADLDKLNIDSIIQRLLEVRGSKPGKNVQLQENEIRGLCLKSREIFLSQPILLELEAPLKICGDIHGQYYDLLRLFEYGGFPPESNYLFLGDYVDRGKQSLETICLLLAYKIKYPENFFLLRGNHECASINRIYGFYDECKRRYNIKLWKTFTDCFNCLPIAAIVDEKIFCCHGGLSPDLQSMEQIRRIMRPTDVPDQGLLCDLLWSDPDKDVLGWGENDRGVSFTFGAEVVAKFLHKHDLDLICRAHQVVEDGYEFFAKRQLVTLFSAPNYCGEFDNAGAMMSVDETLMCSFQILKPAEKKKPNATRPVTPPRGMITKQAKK
GAL4-binding domain PP1γ2 (pAS2-1-PP1γ2) (P36873, form named): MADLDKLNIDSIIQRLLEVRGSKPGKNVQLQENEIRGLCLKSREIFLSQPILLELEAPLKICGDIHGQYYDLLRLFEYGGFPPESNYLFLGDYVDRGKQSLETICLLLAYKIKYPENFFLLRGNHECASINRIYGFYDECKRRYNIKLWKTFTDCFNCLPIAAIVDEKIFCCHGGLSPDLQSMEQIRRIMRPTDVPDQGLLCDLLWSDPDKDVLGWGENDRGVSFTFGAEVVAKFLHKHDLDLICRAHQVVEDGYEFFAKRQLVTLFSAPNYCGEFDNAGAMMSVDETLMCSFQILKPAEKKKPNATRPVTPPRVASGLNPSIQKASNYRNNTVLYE
UniProt Q5PQX1: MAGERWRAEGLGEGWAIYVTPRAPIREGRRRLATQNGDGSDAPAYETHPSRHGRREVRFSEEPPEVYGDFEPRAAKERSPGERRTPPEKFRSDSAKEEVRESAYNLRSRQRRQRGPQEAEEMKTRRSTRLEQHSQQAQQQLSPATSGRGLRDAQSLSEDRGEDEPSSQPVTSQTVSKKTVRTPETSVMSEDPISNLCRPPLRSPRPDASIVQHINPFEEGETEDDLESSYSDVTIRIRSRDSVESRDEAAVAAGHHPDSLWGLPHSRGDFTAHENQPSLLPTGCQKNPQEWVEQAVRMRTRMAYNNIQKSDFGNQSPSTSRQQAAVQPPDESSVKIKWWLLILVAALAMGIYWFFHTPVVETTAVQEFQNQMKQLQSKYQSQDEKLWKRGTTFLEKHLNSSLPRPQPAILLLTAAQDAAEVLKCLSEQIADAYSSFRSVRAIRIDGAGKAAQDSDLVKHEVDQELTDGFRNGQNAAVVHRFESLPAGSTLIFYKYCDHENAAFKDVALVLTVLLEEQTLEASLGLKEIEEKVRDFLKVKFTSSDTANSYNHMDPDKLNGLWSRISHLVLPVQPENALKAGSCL
GAL4 activation domain LAP1B-BM3 (pACT-BM3) (Q5JTV8, residues 237-583): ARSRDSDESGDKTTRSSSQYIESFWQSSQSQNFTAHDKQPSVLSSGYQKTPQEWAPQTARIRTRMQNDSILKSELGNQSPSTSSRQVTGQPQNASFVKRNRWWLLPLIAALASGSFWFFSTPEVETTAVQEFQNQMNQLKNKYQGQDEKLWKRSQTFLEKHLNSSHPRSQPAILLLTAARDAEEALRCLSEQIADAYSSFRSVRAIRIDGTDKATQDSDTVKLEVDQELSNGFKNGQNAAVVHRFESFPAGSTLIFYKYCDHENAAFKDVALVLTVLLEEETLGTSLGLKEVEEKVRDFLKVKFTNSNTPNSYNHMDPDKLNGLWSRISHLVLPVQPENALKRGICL
LAP1B-IVT (Q5JTV8-3, form named): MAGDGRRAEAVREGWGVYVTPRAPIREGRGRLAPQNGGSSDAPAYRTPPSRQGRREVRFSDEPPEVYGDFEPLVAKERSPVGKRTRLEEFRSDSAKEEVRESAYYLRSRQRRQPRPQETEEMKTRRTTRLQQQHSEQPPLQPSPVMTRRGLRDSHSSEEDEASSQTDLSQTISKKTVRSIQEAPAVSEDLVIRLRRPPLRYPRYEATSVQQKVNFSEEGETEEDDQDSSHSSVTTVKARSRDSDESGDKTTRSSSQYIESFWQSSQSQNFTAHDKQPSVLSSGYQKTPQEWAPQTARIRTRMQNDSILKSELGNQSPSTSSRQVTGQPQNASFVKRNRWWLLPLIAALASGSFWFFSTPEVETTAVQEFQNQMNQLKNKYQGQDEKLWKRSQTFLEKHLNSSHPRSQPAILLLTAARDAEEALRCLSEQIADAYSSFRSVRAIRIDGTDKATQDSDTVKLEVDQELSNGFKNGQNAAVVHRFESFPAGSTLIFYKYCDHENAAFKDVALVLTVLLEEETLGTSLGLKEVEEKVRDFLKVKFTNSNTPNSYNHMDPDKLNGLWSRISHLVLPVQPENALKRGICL
6×His-tag LAP1B-BM2 (pET-28c) (Q5JTV8-3, form named): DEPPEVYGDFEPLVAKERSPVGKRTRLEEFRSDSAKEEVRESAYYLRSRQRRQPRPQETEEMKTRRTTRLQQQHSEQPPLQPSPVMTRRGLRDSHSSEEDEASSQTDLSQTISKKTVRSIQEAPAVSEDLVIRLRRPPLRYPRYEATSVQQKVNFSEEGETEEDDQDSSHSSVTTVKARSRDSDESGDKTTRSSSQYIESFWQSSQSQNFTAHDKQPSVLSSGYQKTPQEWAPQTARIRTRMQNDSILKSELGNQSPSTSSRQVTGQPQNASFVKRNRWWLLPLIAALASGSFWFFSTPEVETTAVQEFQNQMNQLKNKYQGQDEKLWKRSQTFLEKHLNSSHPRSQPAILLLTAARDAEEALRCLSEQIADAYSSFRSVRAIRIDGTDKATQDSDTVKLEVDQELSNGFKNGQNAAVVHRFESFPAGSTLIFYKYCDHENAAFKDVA
GAL4 activation domain LAP1B-BM1 (pACT-BM1) (Q5JTV8-3, form named): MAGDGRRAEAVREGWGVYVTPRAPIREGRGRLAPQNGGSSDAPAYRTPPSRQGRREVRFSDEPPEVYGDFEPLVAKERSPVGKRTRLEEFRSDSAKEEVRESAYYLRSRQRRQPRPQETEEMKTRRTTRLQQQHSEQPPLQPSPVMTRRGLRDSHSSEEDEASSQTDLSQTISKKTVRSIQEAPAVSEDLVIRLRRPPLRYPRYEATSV
6×His-tag LAP1B-BM1/2+TM (pET-28c) (Q5JTV8-3, form named): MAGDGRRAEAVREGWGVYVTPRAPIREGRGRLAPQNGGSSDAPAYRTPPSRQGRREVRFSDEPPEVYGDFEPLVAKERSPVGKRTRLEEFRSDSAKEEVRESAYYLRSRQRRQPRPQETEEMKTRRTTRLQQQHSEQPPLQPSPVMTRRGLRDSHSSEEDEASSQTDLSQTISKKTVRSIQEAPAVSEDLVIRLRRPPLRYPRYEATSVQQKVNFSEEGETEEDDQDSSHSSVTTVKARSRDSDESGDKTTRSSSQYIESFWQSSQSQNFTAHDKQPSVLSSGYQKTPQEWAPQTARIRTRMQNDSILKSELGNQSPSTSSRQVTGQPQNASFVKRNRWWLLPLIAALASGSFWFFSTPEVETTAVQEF
GAL4 activation domain LAP1B-BM1/2 (pACT-BM1/2) (Q5JTV8-3, form named): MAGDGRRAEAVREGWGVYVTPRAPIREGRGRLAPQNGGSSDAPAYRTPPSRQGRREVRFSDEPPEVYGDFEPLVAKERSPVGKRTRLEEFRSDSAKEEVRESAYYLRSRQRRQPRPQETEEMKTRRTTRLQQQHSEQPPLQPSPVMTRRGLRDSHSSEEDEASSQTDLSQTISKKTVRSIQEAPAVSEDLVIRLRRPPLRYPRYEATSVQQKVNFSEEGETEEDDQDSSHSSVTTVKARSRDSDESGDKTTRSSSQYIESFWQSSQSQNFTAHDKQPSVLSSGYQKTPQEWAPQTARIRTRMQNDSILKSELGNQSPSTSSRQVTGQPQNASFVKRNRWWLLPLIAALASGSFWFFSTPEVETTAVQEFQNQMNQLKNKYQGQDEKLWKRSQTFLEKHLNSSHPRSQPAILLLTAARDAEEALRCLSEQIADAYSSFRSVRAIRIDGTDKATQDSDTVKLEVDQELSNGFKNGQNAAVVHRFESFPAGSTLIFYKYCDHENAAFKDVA
UniProt P63088: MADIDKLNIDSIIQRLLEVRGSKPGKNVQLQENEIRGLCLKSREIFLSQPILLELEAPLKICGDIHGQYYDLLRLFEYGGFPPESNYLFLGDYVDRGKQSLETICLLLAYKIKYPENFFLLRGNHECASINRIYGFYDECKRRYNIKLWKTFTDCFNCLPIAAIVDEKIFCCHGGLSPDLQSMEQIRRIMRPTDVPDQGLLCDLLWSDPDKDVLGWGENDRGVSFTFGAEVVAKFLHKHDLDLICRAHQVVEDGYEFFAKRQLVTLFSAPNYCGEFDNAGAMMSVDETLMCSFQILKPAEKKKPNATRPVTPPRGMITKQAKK

Legend:
[1] = target: GAL4-binding domain PP1γ1 (pAS2-1-PP1γ1) (UniProt P36873); test: two-hybrid; yeast co-transformation in AH109: pAS2-1-PP1 baits with pACT2-LAP1B or deletion mutants; HIS3, ADE2 and MEL1 reporters; SD/QDO with X-α-Gal, 30°C, 2-4 days
[2] = target: GAL4-binding domain PP1γ1 (pAS2-1-PP1γ1) (UniProt P36873); test: two-hybrid; yeast two-hybrid screens of a human brain cDNA library with PP1α, PP1γ1 and PP1γ2 as baits
[3] = target: GAL4-binding domain PP1γ2 (pAS2-1-PP1γ2) (UniProt P36873); test: as above
[4] = target: GAL4-binding domain PP1γ2 (pAS2-1-PP1γ2) (UniProt P36873); test: two-hybrid; yeast co-transformation in AH109: pAS2-1-PP1 baits with pACT2-LAP1B or deletion mutants; HIS3, ADE2 and MEL1 reporters; SD/QDO with X-α-Gal, 30°C, 2-4 days
[5] = target: endogenous LAP1B of rat brain (rat (endogenous in brain)) (UniProt Q5PQX1); test: co-IP; rat cortex extracts in non-denaturing lysis buffer (50 mM Tris-HCl pH 8.0, 120 mM NaCl, 4% CHAPS); PP1γ, PP1α or LAP1 antibodies on Dynabeads Protein G
[6] = target: 6×His-tag LAP1B-BM1 (pET-28c) (human) (UniProt Q5JTV8); test: far-Western, overlay or dot blot; bacterial extracts with 6×His-LAP1B constructs separated on 10% SDS-PAGE, transferred to nitrocellulose, overlaid with 1 µg/mL purified recombinant PP1γ1; bound PP1γ1 detected with PP1γ antibody and ECL; only the binder purified
[7] = target: 6×His-tag LAP1B-BM1/2+TM (pET-28c) (human) (UniProt Q5JTV8); test: as above
[8] = target: 6×His-tag LAP1B-BM2 (pET-28c) (human) (UniProt Q5JTV8); test: as above
[9] = target: 6×His-tag full-length LAP1B (pET-28c) (human) (UniProt Q5JTV8); test: as above
[10] = target: endogenous PP1γ of rat cortex (rat (endogenous in cortex)) (UniProt P63088); test: co-IP; rat cortex extracts in non-denaturing lysis buffer (50 mM Tris-HCl pH 8.0, 120 mM NaCl, 4% CHAPS); PP1γ, PP1α or LAP1 antibodies on Dynabeads Protein G
[11] = target: purified recombinant PP1γ1 protein (UniProt P36873); test: far-Western, overlay or dot blot; 250 ng purified recombinant PP1γ1 separated on 12% SDS-PAGE, transferred to nitrocellulose, overlaid with in vitro translated LAP1B or LAP1B (ΔA185); detected with LAP1 antibody and ECL; only the target purified

With “GAL4 activation domain LAP1B-BM3 (pACT-BM3) (from UniProt Q5JTV8-3 238-584) (domain or fragment)” as the substance, how does the binding [1] read?
Its binding is “no binding”.

Which binding [2] does the source give for “GAL4 activation domain LAP1B (pACT2-LAP1B) (from UniProt Q5JTV8-3 1-584)” here?
The binding was “binds”.

And the binding [3]?
Its binding is “binds”.

And the binding [1]?
Its binding is “binds”.

What about the binding [4] of the same substance?
Its binding is “binds”.

For “endogenous PP1γ of rat cortex (from UniProt P63088 1-323) (enzyme)”, which binding [5] is on record?
Its binding is “binds”.

For “GAL4 activation domain LAP1B-BM2 (pACT-BM2) (from UniProt Q5JTV8-3 61-508) (domain or fragment)”, which binding [1] is on record?
Its binding is “no binding”.

What does the source list for “purified recombinant PP1γ1 protein (from UniProt P36873-1 1-323) (enzyme)”?
binding [6]: binds; binding [7]: binds; binding ([7]; record 2): binds; binding [8]: no binding (tested: 1 µg/mL PP1γ1); binding [9]: binds

“endogenous LAP1B of rat brain (from UniProt Q5PQX1 1-583)” was tested. Which binding [10] did it give?
The binding was “binds”.

How did the binding [11] turn out when LAP1B-IVT (from UniProt Q5JTV8-3 1-584) was run?
The binding was “binds”.

Which binding [1] does the source give for “GAL4 activation domain LAP1B-BM1/2 (pACT-BM1/2) (from UniProt Q5JTV8-3 1-508) (domain or fragment)” here?
The binding was “binds”.

For “GAL4 activation domain LAP1B-BM1 (pACT-BM1) (from UniProt Q5JTV8-3 1-209) (domain or fragment)”, which binding [1] is on record?
Its binding is “binds”.
